± gives the standard deviation. In all, about 3,700 sequences were measured (“pre-steady-state target cleavage rate”: median about 0.02, highest 2% from about 0.23 on). This is a selection; strong and weak results do not stand in their true shares.
Each sequence was assayed on MILI (PIWIL2) piRISC loaded with Kctd7 piRNA (26 nt) (assay: pre-steady-state target cleavage rate (min^-1); MIWI and MILI are mouse PIWI proteins and EfPiwi is from a freshwater sponge; tags in brackets are library labels; higher = faster piRNA-guided slicing of the target). Conditions: guide: Kctd7 piRNA 5'p-UGUUAAUCUCUCAGAGAAGGUGACAG; auxiliary factor: 500 nM mouse GTSF1.
Method: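 Cleave-'n-Seq: a library of target RNAs (target site embedded in constant flanks, ACAGCATTCCGCGTTAGTGATATCCG... 5' flank; DNA-blocked outside the site) at 0.1 nM was incubated with 1 nM active mouse MILI or MIWI piRISC (synthetic 5'-monophosphorylated piRNA guide) with or without 500 nM mouse GTSF1 at 33 °C for 1 min to 16 h. Uncleaved targets were sequenced and normalised to non-target controls, and the pooled three trials were fitted to a burst-and-steady-state model to give the pre-steady-state cleavage rate (min^-1; k3 is constrained to at most 1e-4). Sequence is the target site only; target names encode pairing extent (gX:gY) and contiguous / 1-mismatch / 2-mismatch / bulge geometry. Fits with R² ≤ 0 are excluded.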

Row | Sequence | pre-steady-state target cleavage rate
1 | UAGUGAGUCACCUUCUCUAAGAGAUUAACA | 0.148 ± 0.015
2 | UAGUGACAGUGGUUCUCUGACGAGAUUAACA | < 0.0001
3 | UAGUGACAGUGCUUCACUGACAGAUUAACA | 0.00488 ± 0.0029
4 | UAGUGACAGUCCUUGUCUGUGAGAUUAACA | 0.0171 ± 0.0041
5 | UAGUCUGUCACCUUCUGUGAGAGUUUAACA | 0.0702 ± 0.016
6 | UAGUGUGUCACCUUCAGUGAGAGAUUAAGA | 0.00654 ± 0.0043
7 | UAGUGAGUCACCUUCUCUGACAGUUUAACA | 0.0134 ± 0.0052
8 | UAGUGAGUCACGUUCUCUGAGUGAUUAACA | 0.0057 ± 0.0032
9 | UAGUGAGUCACCUUCUCUGACAGAUUAACA | 0.0582 ± 0.0063
10 | UAGUGACACACCUUCUGUGAGAGUUUAACA | 0.0882 ± 0.023
11 | UAGUGACAGACCUUCUGUCAGAGAUUAACA | 0.0234 ± 0.0075
12 | UAGUGACAGUGGUUCUCUGAGAGAUUGACA | 0.00676 ± 0.0021
13 | UAGUGACUCACCUUCACUGAGAGAUUAUCA | 0.0961 ± 0.022
14 | UAGUGACUCACCAUCUCUGUGAGAUUAACA | 0.0423 ± 0.0051
15 | UAGUGACAGACGUUCUCUGAGAGAUUAUGA | 0.0059 ± 0.0036
16 | UAGUGACAGUGGAAGUCUGAGAGUAAUUGA [g8:g15:cont:t1A] | < 0.0001
17 | UAGUGACAGUGCUUGUCUCAGAGAUUAACA | 0.00789 ± 0.0033
18 | UAGUGUGUCACCUUCUCUGAGAGAUUACACA | 0.06 ± 0.022
19 | UAGUGACACAGGAUCUCUGAGAGAUAUUGA | < 0.0001
20 | UAGUGACAGUGGUUCUCUCAGAGUUUAACA | < 0.0001

Row | Sequence | pre-steady-state target cleavage rate
21 | UAGUGACAGUGGUUCCCUGAGAGAUUAACA | 0.00909 ± 0.0031
22 | UAGUGAGUCACCUUCAUCUGAGAGAUUAACA | 0.195 ± 0.053
23 | UAGUGACUCACCUUCUCUGAGAGAAAUACA | 0.017 ± 0.0087
24 | UAGUGAGUCACCUUCUCUGAGCGAUUAACA | 0.0537 ± 0.024
25 | UAGUGACUCACCUUCUCUGAGAGAUUAACC [g2:g23:cont:t1C] | 0.162 ± 0.019
26 | UAGUGUGUACCUUCUCUGAGAGAUUAACA | 0.129 ± 0.014
27 | UAGUGACUCACCCUCUCUGAGAGAUUAACA | 0.22 ± 0.023
28 | UAGUCAGUCACCUUCUCUGUGAGAUUAACA | 0.0672 ± 0.0075
29 | UAGUGUGUCACCAUCUCUGAGUGAUUAACA | 0.00697 ± 0.0037
30 | UAGUGAGUCACUUCUCUGAGAGAUUAACA | 0.115 ± 0.011
31 | UAGUGUGUCACGUUCUCUGAGAGAUAAACA | 0.0819 ± 0.017
32 | UAGUCUGUCACCUUCUCUGAGAGAUUGACA | 0.246 ± 0.044
33 | UAGUGACUCACCAAGUCUGAGAGAUUAACA | 0.0618 ± 0.0075
34 | UAGUGACUCACCUUCUCUGAGACUAUAAGA | < 0.0001
35 | UAGUGACAGACCUUCUCAGACAGAUUAACA | 0.00549 ± 0.0033
36 | UAGUGACAGAGCUUCUCUGAGAGAUUAUCA | 0.0166 ± 0.0051
37 | UAGUCAGUCACCUUCUCUGAGAGAUUAUCA | 0.222 ± 0.031
38 | UAGUGACAGUGGUCCUCUGAGAGAUUAACA | 0.00836 ± 0.0012
39 | UAGUGACAGUCCUACUCUGAGAGAUAAACA | 0.00281 ± 0.0025
